{
  "source": "PubChem BioAssay (NCI)",
  "test_in_all_cases": "inhibition of tumour cell growth, NCI panel, 48 h",
  "key": {"[1]": {"tested_on": "IGROV1 ovarian"}, "[2]": {"tested_on": "MDA-MB-231 breast"}, "[3]": {"tested_on": "HCT-116 colon"}, "[4]": {"tested_on": "HCC-2998 colon"}, "[5]": {"tested_on": "SK-MEL-5 melanoma"}, "[6]": {"tested_on": "U251 CNS"}, "[7]": {"tested_on": "SNB-19 CNS"}, "[8]": {"tested_on": "MOLT-4 leukemia"}, "[9]": {"tested_on": "SNB-75 CNS"}},
  "note": "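Compound exposure: 48 hours, 5 concentrations, 96-well plates. TGI: concentration producing complete growth inhibition.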 The source holds more than one record for some entries. This is not the full list of results. There may be further records. For part of these data: A record mostly stands for its own series of concentrations, not given here; a value can be the end of its range. For part of these data: Values that stand side by side are repeats in other runs, samples, wells, individuals or studies. Marks in square brackets tell the records apart. Letters hold for one entry only.",
  "data": [
    {"smiles": "CCCCc1oc2ccccc2c1C(=O)c1cc(I)c(OCCN(CC)CC)c(I)c1", "values": [
      {"measurement": "TGI", "setting": "[1]", "value": "250 µM [sample A] and 19.9 µM [sample B]"}
    ]},
    {"smiles": "CC(C)[C@H](O)C(=O)N[C@H]1Cc2ccc3c(c2)[C@]24C5=C(N=C(O5)[C@H](C(C)C)NC1=O)c1nc(Cl)c(o1)-c1c(Cl)[nH]c5cccc(c15)-c1cccc2c1N[C@H]4O3", "values": [
      {"measurement": "TGI", "setting": "[2]", "value": "47.6 nM and > 10 µM"},
      {"measurement": "TGI", "setting": "[3]", "value": "18.6 nM and > 10 µM"},
      {"measurement": "TGI", "setting": "[4]", "value": "55.7 nM and 1.62 µM"},
      {"measurement": "TGI", "setting": "[5]", "value": "82.7 nM and 1.68 nM"},
      {"measurement": "TGI", "setting": "[6]", "value": "22.9 nM and > 10 µM"},
      {"measurement": "TGI", "setting": "[7]", "value": "91.7 nM and > 10 µM"}
    ]},
    {"smiles": "CN1CCN(c2ccc([N+](=O)[O-])c3no[n+]([O-])c23)CC1", "values": [
      {"measurement": "TGI", "setting": "[8]", "value": "16.1 nM [sample A, 1 test] and 356 nM [sample B, mean of 2 tests]"},
      {"measurement": "TGI", "setting": "[9]", "value": "70.5 nM [sample A] and 1.35 µM [sample B]"}
    ]}
  ]
}
